{"source": "PubChem BioAssay (NCATS)", "key": {"[1]": {"test": "P-glycoprotein substrates identified in KB-8-5-11 adenocarcinoma cell line, qHTS therapeutic library screen (AID 1346987); also: nearly all actives have a fitted effect of over 65% in size; also: potency is read from the fitted curve at half-maximal effect", "outline": "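Human cervical adenocarcinoma KB-8-5-11 cells, selected in colchicine to over-express P-gp and assayed without it, were exposed for 72 h to titrated compounds. An ATP-based luminescent viability signal gave AC50.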"}, "[2]": {"test_system": "Zika virus NS2B-NS3 protease (unlinked complex)", "test": "Primary screen GU Rhodamine qHTS for Zika virus inhibitors: Unlinked NS2B-NS3 protease assay (AID 1347159); also: nearly all actives have a fitted effect of over 60% in size; also: potency is read from the fitted curve at half-maximal effect", "outline": "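Enzyme 25 nM in Tris-HCl pH 8.0 + 0.01% Tween 20; compounds up to 114 microM, 15 min RT dark; + Rhod110 substrate 1.5 microM; read t0 and 15 min; delta fluorescence → % inhibition → 4-parameter Hill fit.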"}, "[3]": {"test_system": "Zika virus NS2B-NS3 protease (linked construct)", "test": "Primary screen NINDS Rhodamine qHTS for Zika virus inhibitors (AID 1347160); also: potency is read from the fitted curve at half-maximal effect; nearly all actives have a fitted effect of over 55% in size", "conditions": "activity change, negative = inhibition: at 57.1 µM (top of the series) unless noted", "outline": "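Enzyme (25 nM, linked NS2B-NS3) was preincubated 15 min with compound in 10 mM Tris-HCl pH 8.0, 0.01% Tween 20. Rhodamine110 substrate (1.5 microM) was then added and fluorescence read at start and after 15 min.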"}, "[4]": {"test": "Primary fluorescence-based thiol-reactive (MSTI) qHTS assay for identification of artifact compounds. (AID 1845221); also: nearly all actives have a fitted effect of over 65% in size; also: potency is read from the fitted curve at half-maximal effect", "outline": "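MSTI probe at 4 uM final in 2% DMSO/PBS pH 7.4; compounds, 1 h at room temperature in dark. Fluorescence Ex/Em 525/598 nm, normalised to Acetyl-MSTI and MSTI, fitted to 4-parameter Hill.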"}, "HEK293": {"test_system": "HEK293", "test": "Cytotoxic Profiling of Annotated Libraries Using Quantitative High-Throughput Screening (AID 1296008); also: nearly all actives have a fitted effect of over 60% in size; also: potency is read from the fitted curve at half-maximal effect", "conditions": "Five cell lines viability, CellTiter-Glo ATP luminescence, 48-72 h; max response: hits give low values", "outline": "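Cytotoxicity was measured as CellTiter-Glo ATP luminescence, read after 10 min at room temperature. Compound treatment of the cells lasted 48 or 72 hr at 37 degrees Celsius in a qHTS format.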"}, "JEG-3": {"test_system": "JEG-3", "test": "Primary qHTS to identify gynecologic anti-cancer compounds using libraries of approved drugs and bioactive compounds (AID 1345084); also: nearly all actives have a fitted effect of over 55% in size; also: potency is read from the fitted curve at half-maximal effect", "conditions": "Gynecologic cancer cell panel viability, ATPlite luminescence, 48 h; series mostly up to 57.5 µM", "outline": "(§1)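 Cells, 1,000 per well, plated 16 h, then exposed 48 h at 37 C to compounds. Viability by ATPlite luminescence after 15 min at room temperature.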"}, "Tov112D": {"test_system": "Tov112D", "test": "Primary qHTS to identify gynecologic anti-cancer compounds using libraries of approved drugs and bioactive compounds (AID 1345084)", "conditions": "Gynecologic cancer cell panel viability, ATPlite luminescence, 48 h; series mostly up to 57.5 µM", "outline": "as §1"}, "[5]": {"test": "Primary qHTS for inhibitors of nuclear receptor binding SET domain protein 2 (NSD2) in an RCH-ACV wild type WT cells (2C) (AID 1645877)", "conditions": "activity change, negative = cell killing: at 44.9 µM (top of the series) unless noted"}, "PA-1": {"test_system": "PA-1", "test": "Primary qHTS to identify gynecologic anti-cancer compounds using libraries of approved drugs and bioactive compounds (AID 1345084)", "conditions": "Gynecologic cancer cell panel viability, ATPlite luminescence, 48 h; series mostly up to 57.5 µM", "outline": "as §1"}, "[6]": {"test_system": "Nanoluciferase (engineered Oplophorus gracilirostris luciferase)", "test": "Primary Nanoluciferase (NLuc) qHTS assay for identification of artifact compounds. (AID 1845222)", "outline": "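NLuc from S16 cell medium (1:55) plus test compounds, 15 min, room temperature. Luminescence after Nano-Glo (1:100) addition, 5 min.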"}, "[7]": {"test": "Primary qHTS for inhibitors of nuclear receptor binding SET domain protein 2 (NSD2) in an isogenic RCH-ACV NSD2 p.E1099K mutant (9B) (AID 1645876)"}, "[8]": {"test": "Primary redox qHTS assay for identification of artifact compounds. (AID 1845223)", "conditions": "Amplex Red/HRP redox cycling with DTT, fluorescence; redox activity (% of DA3003): at 53.8 µM (top of the series)", "outline": "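Redox-cycling detection via DTT (250 uM final) oxidation coupled to Amplex Red (25 uM)/HRP (250 mU/mL) in HBSS. 15 min preincubation plus 30 min after DTT, room temperature. Ex/Em 525/598 nm; 4-parameter Hill fit against DMSO and 10 uM DA3003.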"}, "[9]": {"test": "qHTS of pediatric cancer cell lines to identify multiple opportunities for drug repurposing: Primary screen for A673 cells (AID 1347092)", "conditions": "A673 Ewing sarcoma viability, CellTiter-Glo ATP luminescence, 48 h; activity change, negative = cytotoxic: at 46 µM (top of the series)", "outline": "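Cell viability of A673 measured by CellTiter-Glo ATP luminescence after 48 hours compound exposure. Dilution series spanned 0.78 nM to 46 µM (MIPE, 11-point) or 0.59 nM to 46 µM (NPC, 8-point); bortezomib 2.3 uM positive control.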"}, "[10]": {"test": "qHTS of pediatric cancer cell lines to identify multiple opportunities for drug repurposing: Primary screen for Rh41 cells (AID 1347108)", "outline": "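Plated cells (500-1,000 per well, growth media) were allowed to settle for 5 hours, treated with compound dilutions for 48 hours, then lysed with CellTiter-Glo for 15 min at room temperature before luminescence reading.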"}, "SKOV3": {"test_system": "SKOV3", "test": "Primary qHTS to identify gynecologic anti-cancer compounds using libraries of approved drugs and bioactive compounds (AID 1345084)", "conditions": "Gynecologic cancer cell panel viability, ATPlite luminescence, 48 h; series mostly up to 57.5 µM", "outline": "as §1"}}, "note": "Inconclusive means that the source gave no clear call. Such entries were picked first, then a sample of the others. Entries that show only a call come without a potency. For some of these results: A potency beside an inconclusive call is a rough fit, not a confirmed value. Calls of active or inactive are those of the source. Calls follow the shape of the dose curve; as a rule, active = well fitted curve in the direction sought with a large enough effect; inconclusive = small, poorly fitted or top-dose-only effect, or another doubt; inactive = no such curve, though single readings can be large; an effect the other way counts as inactive or inconclusive. For activity change, negative = cell killing in this document: nearly all actives have a fitted effect of over 70% in size. Tags tell the direction and shape of the fitted curve."}
{"compound": "C[C@H]1CC[C@H]2[C@@H](C=C[C@@](C)(O)[C@]2(C)C(=O)CCO)C1", "values": [{"measurement": "Potency", "setting": "[1]", "value": "inactive"}, {"measurement": "Potency", "setting": "[2]", "value": "inconclusive: 25.1 µM [inhibitor, full curve]"}, {"measurement": "Potency", "setting": "[3]", "value": "inconclusive: 39.8 µM [inhibitor, single point]"}, {"measurement": "Potency", "setting": "[4]", "value": "inconclusive: 37.7 µM [inhibitor, partial curve, poor fit]"}, {"measurement": "max response", "setting": "HEK293", "value": "inactive: 4.9%"}, {"measurement": "Potency", "setting": "JEG-3", "value": "inconclusive: 7.08 µM [rising, single point]"}, {"measurement": "Potency", "setting": "Tov112D", "value": "inactive"}]}
{"compound": "CC1(C)CC2C(O)C3=C(CC(C)(O)C2C1)C(=O)OC3", "note": "(stereo not given)", "values": [{"measurement": "Potency", "setting": "[2]", "value": "inactive"}, {"measurement": "max response", "setting": "HEK293", "value": "inactive: -1.51%"}, {"measurement": "Potency", "setting": "JEG-3", "value": "inactive"}]}
{"compound": "CC(=O)N1CCN(NC(=O)c2ccc(F)cc2)CC1", "values": [{"measurement": "Potency", "setting": "[5]", "value": "inactive"}, {"measurement": "outcome", "setting": "HEK293", "value": "inactive"}, {"measurement": "Potency", "setting": "JEG-3", "value": "inactive"}]}
{"compound": "CC(C)=CCC[C@](C)(O[C@@H]1O[C@H](CO[C@@H]2OC[C@@H](O)[C@H](O)[C@H]2O)[C@@H](O)[C@H](O)[C@H]1O)[C@H]1CC[C@]2(C)[C@@H]1[C@H](O)C[C@@H]1[C@@]3(C)CC[C@H](O[C@@H]4O[C@H](CO)[C@@H](O)[C@H](O)[C@H]4O[C@@H]4O[C@H](CO)[C@@H](O)[C@H](O)[C@H]4O)C(C)(C)[C@@H]3CC[C@]12C", "values": [{"measurement": "Potency", "setting": "[2]", "value": "inactive"}, {"measurement": "Potency", "setting": "[5]", "value": "inactive"}, {"measurement": "outcome", "setting": "HEK293", "value": "inactive"}, {"measurement": "Potency", "setting": "JEG-3", "value": "inactive"}, {"measurement": "Potency", "setting": "PA-1", "value": "inconclusive: 17.8 µM [rising, single point]"}]}
{"compound": "CC1(C)CCCC2(C)C1C(OC(=O)/C=C/C=C/C=O)C=C1COC(=O)C12O", "note": "(stereo not given)", "values": [{"measurement": "Potency", "setting": "[1]", "value": "inconclusive: 10 µM [inhibitor, single point]"}, {"measurement": "Potency", "setting": "[2]", "value": "inconclusive: 3.55 µM [inhibitor, full curve]"}, {"measurement": "Potency", "setting": "[4]", "value": "inactive"}, {"measurement": "Potency", "setting": "[6]", "value": "inconclusive: 10.4 µM [inhibitor, partial curve]"}, {"measurement": "Potency", "setting": "HEK293", "value": "inconclusive: 15.9 µM [inhibitor, single point]"}, {"measurement": "Potency", "setting": "JEG-3", "value": "inactive"}]}
{"compound": "C=C1C(=O)OC2C=C(C)CC/C=C(\\CO)CC(O)C12", "note": "(stereo not given)", "values": [{"measurement": "Potency", "setting": "[2]", "value": "inactive"}, {"measurement": "Potency", "setting": "[7]", "value": "inconclusive: 29 µM [inhibitor, single point]"}, {"measurement": "Potency", "setting": "[4]", "value": "inconclusive: 9.47 µM [inhibitor, partial curve]"}, {"measurement": "Potency", "setting": "[8]", "value": "inactive"}, {"measurement": "Potency", "setting": "HEK293", "value": "inconclusive: 29.1 µM [inhibitor, single point]"}, {"measurement": "Potency", "setting": "JEG-3", "value": "inactive"}]}
{"compound": "CCOc1ccc(CCNC(=O)c2cc3sc(Cl)cc3n2C)cc1OCC", "values": [{"measurement": "Potency", "setting": "[2]", "value": "inactive"}, {"measurement": "Potency", "setting": "[4]", "value": "inconclusive: 33.6 µM [inhibitor, partial curve, poor fit]"}, {"measurement": "Potency", "setting": "HEK293", "value": "inconclusive: 29.1 µM [inhibitor, single point]"}, {"measurement": "Potency", "setting": "JEG-3", "value": "inactive"}]}
{"compound": "O=C(CCCl)NCCc1ccccc1", "values": [{"measurement": "Potency", "setting": "[9]", "value": "inactive"}, {"measurement": "Potency", "setting": "[10]", "value": "inactive"}, {"measurement": "Potency", "setting": "[7]", "value": "inactive"}, {"measurement": "max response", "setting": "HEK293", "value": "inactive: -1.92%"}, {"measurement": "Potency", "setting": "PA-1", "value": "inactive"}, {"measurement": "Potency", "setting": "SKOV3", "value": "inconclusive: 7.08 µM [rising, partial curve, poor fit]"}]}
